Measured values as given in PMC9911399, “Two distinct binding modes provide the RNA-binding protein RbFox with extraordinary sequence specificity”.
Positions count from the first letter of the chain named. The list shows a part of the results.

T1: RBFOX1 RRM RbFoxmut (Fox-RRM*) (Homo sapiens, UniProt Q9NWB1 109-208, R118D;E147R;N151S;E152T)
T1 sequence: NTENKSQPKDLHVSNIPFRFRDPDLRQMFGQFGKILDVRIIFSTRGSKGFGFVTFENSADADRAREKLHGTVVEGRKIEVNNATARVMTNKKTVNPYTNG

B1: ACUGUGG (DNA:RNA)
RNA: GGGAGACCGGAAUUCAGAUUGUCCACUGUGGUUAAAUCCCGUCGUAGCCACCA
DNA 1: CAATCTGAATTCCGGTCTCCC
DNA 2: TGGTGGCTACGACGGGATT
B2: CUUGAAU (DNA:RNA)
RNA: B1 RNA with A25C, C26U, U29A, G30A, G31U
DNA 1: CAATCTGAATTCCGGTCTCCC
DNA 2: TGGTGGCTACGACGGGATT
B3: UCCCGUA (DNA:RNA)
RNA: B1 RNA with A25U, U27C, G28C, U29G, G30U, G31A
DNA 1: CAATCTGAATTCCGGTCTCCC
DNA 2: TGGTGGCTACGACGGGATT
B4: GUCCGCA (DNA:RNA)
RNA: GGGAGACCGGAAUUCAGAUUGUCCGUCCGCAUUAAAUCCCGUCGUAGCCACCA
DNA 1: CAATCTGAATTCCGGTCTCCC
DNA 2: TGGTGGCTACGACGGGATT
B5: AUAAAUC (DNA:RNA)
RNA: B1 RNA with C26U, U27A, G28A, U29A, G30U, G31C
DNA 1: CAATCTGAATTCCGGTCTCCC
DNA 2: TGGTGGCTACGACGGGATT
B6: AUUGAAA (DNA:RNA)
RNA: B1 RNA with C26U, U29A, G30A, G31A
DNA 1: CAATCTGAATTCCGGTCTCCC
DNA 2: TGGTGGCTACGACGGGATT
B7: GUUUAUG (DNA:RNA)
RNA: B1 RNA with A25G, C26U, G28U, U29A, G30U
DNA 1: CAATCTGAATTCCGGTCTCCC
DNA 2: TGGTGGCTACGACGGGATT
B8: AGCUACC (DNA:RNA)
RNA: B4 RNA with G25A, U26G, C28U, G29A, A31C
DNA 1: CAATCTGAATTCCGGTCTCCC
DNA 2: TGGTGGCTACGACGGGATT
B9: GGACGUU (DNA:RNA)
RNA: B4 RNA with U26G, C27A, C30U, A31U
DNA 1: CAATCTGAATTCCGGTCTCCC
DNA 2: TGGTGGCTACGACGGGATT
B10: GCGUCCG (DNA:RNA)
RNA: B1 RNA with A25G, U27G, G28U, U29C, G30C
DNA 1: CAATCTGAATTCCGGTCTCCC
DNA 2: TGGTGGCTACGACGGGATT
B11: AGUAGAA (DNA:RNA)
RNA: B1 RNA with C26G, G28A, U29G, G30A, G31A
DNA 1: CAATCTGAATTCCGGTCTCCC
DNA 2: TGGTGGCTACGACGGGATT
B12: UUCUCAG (DNA:RNA)
RNA: B4 RNA with G25U, C28U, G29C, C30A, A31G
DNA 1: CAATCTGAATTCCGGTCTCCC
DNA 2: TGGTGGCTACGACGGGATT
B13: UCGUGGU (DNA:RNA)
RNA: B1 RNA with A25U, U27G, G28U, U29G, G31U
DNA 1: CAATCTGAATTCCGGTCTCCC
DNA 2: TGGTGGCTACGACGGGATT
B14: AUCUGGC (DNA:RNA)
RNA: B4 RNA with G25A, C28U, C30G, A31C
DNA 1: CAATCTGAATTCCGGTCTCCC
DNA 2: TGGTGGCTACGACGGGATT
B15: GAAGGUA (DNA:RNA)
RNA: B4 RNA with U26A, C27A, C28G, C30U
DNA 1: CAATCTGAATTCCGGTCTCCC
DNA 2: TGGTGGCTACGACGGGATT
B16: UACACUC (DNA:RNA)
RNA: B4 RNA with G25U, U26A, C28A, G29C, C30U, A31C
DNA 1: CAATCTGAATTCCGGTCTCCC
DNA 2: TGGTGGCTACGACGGGATT
B17: CACCUCU (DNA:RNA)
RNA: B4 RNA with G25C, U26A, G29U, A31U
DNA 1: CAATCTGAATTCCGGTCTCCC
DNA 2: TGGTGGCTACGACGGGATT
B18: CUGUACA (DNA:RNA)
RNA: B4 RNA with G25C, C27G, C28U, G29A
DNA 1: CAATCTGAATTCCGGTCTCCC
DNA 2: TGGTGGCTACGACGGGATT
B19: GCGUGUG (DNA:RNA)
RNA: B1 RNA with A25G, U27G, G28U, U29G, G30U
DNA 1: CAATCTGAATTCCGGTCTCCC
DNA 2: TGGTGGCTACGACGGGATT
B20: UAGCUUA (DNA:RNA)
RNA: B4 RNA with G25U, U26A, C27G, G29U, C30U
DNA 1: CAATCTGAATTCCGGTCTCCC
DNA 2: TGGTGGCTACGACGGGATT
B21: UUAGGAG (DNA:RNA)
RNA: B1 RNA with A25U, C26U, U27A, U29G, G30A
DNA 1: CAATCTGAATTCCGGTCTCCC
DNA 2: TGGTGGCTACGACGGGATT
B22: UUCAAUU (DNA:RNA)
RNA: B4 RNA with G25U, C28A, G29A, C30U, A31U
DNA 1: CAATCTGAATTCCGGTCTCCC
DNA 2: TGGTGGCTACGACGGGATT
B23: UAUGUUU (DNA:RNA)
RNA: B1 RNA with A25U, C26A, G30U, G31U
DNA 1: CAATCTGAATTCCGGTCTCCC
DNA 2: TGGTGGCTACGACGGGATT
B24: CCAUUGA (DNA:RNA)
RNA: B1 RNA with A25C, U27A, G28U, G31A
DNA 1: CAATCTGAATTCCGGTCTCCC
DNA 2: TGGTGGCTACGACGGGATT
B25: AAGUAAA (DNA:RNA)
RNA: B1 RNA with C26A, U27G, G28U, U29A, G30A, G31A
DNA 1: CAATCTGAATTCCGGTCTCCC
DNA 2: TGGTGGCTACGACGGGATT
B26: GUAGGAA (DNA:RNA)
RNA: B4 RNA with C27A, C28G, C30A
DNA 1: CAATCTGAATTCCGGTCTCCC
DNA 2: TGGTGGCTACGACGGGATT
B27: UCUGGGG (DNA:RNA)
RNA: B1 RNA with A25U, U29G
DNA 1: CAATCTGAATTCCGGTCTCCC
DNA 2: TGGTGGCTACGACGGGATT
B28: CCCUAUA (DNA:RNA)
RNA: B4 RNA with G25C, U26C, C28U, G29A, C30U
DNA 1: CAATCTGAATTCCGGTCTCCC
DNA 2: TGGTGGCTACGACGGGATT
B29: AUACUCC (DNA:RNA)
RNA: B4 RNA with G25A, C27A, G29U, A31C
DNA 1: CAATCTGAATTCCGGTCTCCC
DNA 2: TGGTGGCTACGACGGGATT
B30: CCAACAA (DNA:RNA)
RNA: B1 RNA with A25C, U27A, G28A, U29C, G30A, G31A
DNA 1: CAATCTGAATTCCGGTCTCCC
DNA 2: TGGTGGCTACGACGGGATT
B31: AGAGACU (DNA:RNA)
RNA: B1 RNA with C26G, U27A, U29A, G30C, G31U
DNA 1: CAATCTGAATTCCGGTCTCCC
DNA 2: TGGTGGCTACGACGGGATT

Biological target: T1, RBFOX1 RRM RbFoxmut (Fox-RRM*)
Assay: EMSA; HiTS-Eq, 1 nM pool, 10 min; buffer printed only for the single-RNA assays: 10 mM Tris pH 7.5, 150 mM NaCl, 3.4 mM EDTA, 0.001% NP-40, 30 C
Conditions: tags: His6 N-terminal (pET28a); label: 5' 32P
Procedure, shortened: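 A pool of RNA with 7 randomized nucleotides, 5′-radiolabelled and with DNA-annealed flanks, was equilibrated at 1 nM for 10 min in 50 µL with purified RbFox RRM, wild type or mutant, across increasing protein concentrations. Free RNA was separated by 8% native PAGE, excised, reverse-transcribed, barcoded by PCR and sequenced. Relative association constants were obtained from read-count changes of each RNA species versus the control reaction and normalised to the cognate motif.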

Binder | binding signal
B1 | 0.109 KA relative to UGCAUGU
B2 | 0.104 KA relative to UGCAUGU
B3 | 0.12 KA relative to UGCAUGU
B4 | 0.107 KA relative to UGCAUGU
B5 | 0.0815 KA relative to UGCAUGU
B6 | 0.0994 KA relative to UGCAUGU
B7 | 0.172 KA relative to UGCAUGU
B8 | 0.082 KA relative to UGCAUGU
B9 | 0.0995 KA relative to UGCAUGU
B10 | 0.135 KA relative to UGCAUGU
B11 | 0.135 KA relative to UGCAUGU
B12 | 0.0887 KA relative to UGCAUGU
B13 | 0.137 KA relative to UGCAUGU
B14 | 0.104 KA relative to UGCAUGU
B15 | 0.112 KA relative to UGCAUGU
B16 | 0.0474 KA relative to UGCAUGU

Binder | binding signal
B17 | 0.0757 KA relative to UGCAUGU
B18 | 0.0779 KA relative to UGCAUGU
B19 | 0.236 KA relative to UGCAUGU
B20 | 0.134 KA relative to UGCAUGU
B21 | 0.129 KA relative to UGCAUGU
B22 | 0.0592 KA relative to UGCAUGU
B23 | 0.134 KA relative to UGCAUGU
B24 | 0.124 KA relative to UGCAUGU
B25 | 0.124 KA relative to UGCAUGU
B26 | 0.0961 KA relative to UGCAUGU
B27 | 0.0593 KA relative to UGCAUGU
B28 | 0.108 KA relative to UGCAUGU
B29 | 0.0666 KA relative to UGCAUGU
B30 | 0.0481 KA relative to UGCAUGU
B31 | 0.0725 KA relative to UGCAUGU
